# From article PMC4336329 (PLoS ONE, 2015)
# In all, about 310,000 compounds went through this assay and about 14,000 (4.5%) showed an effect of 50% or more. Effects have a minus sign here. The list shows a part of the results.
# Biological target: human ether-à-go-go-related gene (hERG) potassium channel (human, UniProt Q12809)
# Test: primary screen, population patch clamp on CHO cells stably expressing hERG
# 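Also: peak tail current of the secondary pulse compared with the same well before compound.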
# human ether-à-go-go-related gene (hERG) potassium channel, sequence (Q12809 whole entry, looked up): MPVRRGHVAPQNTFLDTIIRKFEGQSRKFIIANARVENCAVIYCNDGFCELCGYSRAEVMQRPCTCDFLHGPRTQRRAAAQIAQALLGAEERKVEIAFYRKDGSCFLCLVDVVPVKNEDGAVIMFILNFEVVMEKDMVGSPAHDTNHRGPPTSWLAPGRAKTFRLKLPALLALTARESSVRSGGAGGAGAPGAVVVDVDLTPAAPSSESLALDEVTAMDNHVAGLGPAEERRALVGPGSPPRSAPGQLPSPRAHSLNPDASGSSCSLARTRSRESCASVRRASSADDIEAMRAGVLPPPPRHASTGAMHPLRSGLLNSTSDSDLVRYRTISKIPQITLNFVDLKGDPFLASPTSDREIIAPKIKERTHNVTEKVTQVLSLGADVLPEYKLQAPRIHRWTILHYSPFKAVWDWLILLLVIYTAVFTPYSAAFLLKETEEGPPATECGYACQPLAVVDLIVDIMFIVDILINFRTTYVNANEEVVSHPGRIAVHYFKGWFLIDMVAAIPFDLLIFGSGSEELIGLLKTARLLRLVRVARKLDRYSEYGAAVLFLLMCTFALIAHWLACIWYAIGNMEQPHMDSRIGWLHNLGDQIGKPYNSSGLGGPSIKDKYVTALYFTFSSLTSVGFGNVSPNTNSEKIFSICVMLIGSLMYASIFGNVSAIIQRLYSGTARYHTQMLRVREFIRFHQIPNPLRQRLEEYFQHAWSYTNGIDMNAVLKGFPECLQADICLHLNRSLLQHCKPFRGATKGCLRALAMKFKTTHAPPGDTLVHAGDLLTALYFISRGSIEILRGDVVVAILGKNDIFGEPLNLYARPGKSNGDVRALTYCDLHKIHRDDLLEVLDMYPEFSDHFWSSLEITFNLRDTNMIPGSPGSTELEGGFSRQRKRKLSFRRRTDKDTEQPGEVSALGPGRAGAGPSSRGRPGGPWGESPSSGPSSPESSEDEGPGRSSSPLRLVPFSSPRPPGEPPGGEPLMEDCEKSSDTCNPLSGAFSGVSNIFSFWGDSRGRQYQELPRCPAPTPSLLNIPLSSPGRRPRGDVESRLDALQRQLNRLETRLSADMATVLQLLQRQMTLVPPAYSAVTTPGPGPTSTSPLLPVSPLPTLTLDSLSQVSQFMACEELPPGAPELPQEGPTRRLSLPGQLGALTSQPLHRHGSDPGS
row,Compound,"hERG current change (%, negative = inhibition) at 10uM [%]"
1,Cc1ccc(Oc2cc(NC(=O)CCCn3nc(C)c([N+](=O)[O-])c3C)cc([N+](=O)[O-])c2)cc1,1.19
2,COc1ccc(NC(=O)CCN2CCN(S(=O)(=O)c3ccc(C(C)C)cc3)CC2)cc1,4.54
3,Brc1ccc(-c2nc3ncccn3c2Nc2ccc3c(c2)OCCO3)o1,-31.9
4,CCCCC(=O)N/C(N)=N/c1nc2ccccc2o1,8.93
5,Cc1nc(NCc2ccccc2)[nH]c(=O)c1CCC(C)C,15.5
6,COCc1cc(C)nc(SCc2ccc(Br)cc2)c1C#N,8.84
7,CCN(CC)CC(=O)Nc1sc2c(c1C(=O)c1ccccc1C)CCC2,2.52
8,Cc1ccn2c(CNC(C)CCn3cccn3)c(C(=O)N3CCCCCC3)nc2c1 (stereo not drawn),-33.1
9,O=C(NCC1CCCO1)c1cc(NS(=O)(=O)c2cccs2)cc(NS(=O)(=O)c2cccs2)c1 (stereo not drawn),18
10,Cc1cc2ncc(Cl)nc2cc1C,14.2
11,COC(=O)c1c(C)oc2ccc(N(C(=O)Oc3ccccc3)S(=O)(=O)c3ccccc3)cc12,2.5
12,Cc1cc(NC(=O)c2cccc3c2C(=O)N(C2CCCCC2)C3)ccc1Br,13
13,CCCCn1c(N)c(-c2nc3ccccc3s2)c2c([N+](=O)[O-])nn(C)c(=O)c21,-5.65
14,CCN1CCN(C(c2cccs2)C(C)NS(=O)(=O)c2ccc(F)cc2)CC1 (stereo not drawn),-28.4
15,COC(=O)c1ccccc1NC(=O)C1CCCN(c2nnc(-n3cccc3)s2)C1 (stereo not drawn),-53
16,O=C(CN1C(=O)c2ccccc2S1(=O)=O)Nc1cccnc1,-2.98
17,C=CCc1cccc(/C=N/NC(=O)COc2ccc(-n3cnnn3)cc2)c1O,11.3
18,N#Cc1ccc(OCC(=O)N2CCCC2=O)cc1,-0.981
19,O=C(Nc1ccc(F)cc1)C(=O)c1c(O)[nH]c2ccc([N+](=O)[O-])cc12,-2.41
20,Cc1ccc(S(=O)(=O)N2CCC(NC(=O)c3cccc(F)c3)CC2)cc1,10.4
21,C=CCn1ncc(OC)c(Cl)c1=O,6.24
22,CCOC(=O)C1=CC[C@H]2c3c(c4ccccc4n3C)C(=O)C1N2C,11.6

row,Compound,"hERG current change (%, negative = inhibition) at 10uM [%]"
1,CCOCc1c(C(=O)NC2=Nc3ccccc3NC(CC)=C2C(=O)OCC)oc2ccccc12,0.462
2,CC(C)COc1ccc(C(=O)NC(CC(C)C)C(=O)O)cc1 (stereo not drawn),15.4
3,CC(C)(C)c1ccc(S(=O)(=O)NC(Cc2ccccc2)C(=O)O)cc1 (stereo not drawn),2.7
4,Cc1nn(CC(=O)NC2CCS(=O)(=O)C2)c(C)c1S(=O)(=O)N(C)C (stereo not drawn),-2.97
5,O=C(c1ccc(Cl)cc1)C1CCN(C(=O)NC2CCCCC2)CC1,-6.29
6,CC(C)c1ccc(NC(=S)N2CCCC(c3ccc(F)cc3)=N2)cc1,9.45
7,Cc1cc([N+](=O)[O-])cc2c1NC(c1ccccn1)C1CC=CC21 (stereo not drawn),-10.5
8,O=C(CN1c2cccc3cccc(c23)S1(=O)=O)NCc1ccc(Cl)cc1,-13.4
9,COc1ccccc1N1CCN(Cc2cc(=O)c(OCC(=O)Nc3ccccc3)co2)CC1,25.5
10,O=C(NC(C(=O)c1ccccc1)n1cnccc1=O)c1ccccc1 (stereo not drawn),1.42
11,CC(=O)N1CCc2c(sc(NC(=O)Cc3ccc(F)cc3)c2C(N)=O)C1,-3.85
12,COc1ccc(NC(=O)C(NC(=O)c2ccc(=O)[nH]c2)c2ccc(C)cc2)cc1 (stereo not drawn),6.99
13,CC(Sc1n[nH]c(-c2cccs2)n1)C(=O)Nc1ccccc1F (stereo not drawn),1.68
14,CCOc1ccc(C(=O)N2CCCC2)cc1,5.24
15,CN(CC(=O)Nc1cccc(F)c1)C(=O)c1cn(-c2ccccc2)nc1-c1ccccc1,-1.36
16,O=C(CCCSc1nc2ccccc2[nH]1)NCc1ccc(Cl)cc1,-62.3
17,O=C(O)CNc1ncccc1[N+](=O)[O-],-86.1
18,COCCCNc1c2c(nc3nnnn13)CCCC2,2.52
19,COC(=O)c1ccccc1NC(=O)CSc1nncn1C,16.1
20,COc1ccc(NCC(=O)n2c(C)c(C)c3ccccc32)cc1OC,8.3
21,Cc1ccc(OCC(=O)NCCNC(=O)c2cccnc2)cc1C,17.7
22,O=C(Cn1c(=O)n(Cc2ccco2)c(=O)c2ccccc21)Nc1cccc(Cl)c1,5.12

row,Compound,"hERG current change (%, negative = inhibition) at 10uM [%]"
1,CC(=O)c1c(C)[nH]c(C(=O)CSc2nc3ccccc3c(=O)n2CCCO)c1C,-8.1
2,CC(C)c1ccc(NC(=O)CNCC(c2ccccc2)N(C)C)cc1 (stereo not drawn),-27.6
3,C=CCNC(=S)NNC(=O)c1ccc(=O)n(Cc2ccc(Cl)cc2Cl)c1,12.3
4,CCCOC(=O)Nc1ccc([As](=O)(O)O)cc1NC(=O)OCCC,24.1
5,O=C1C(Cc2ccccc2)C(c2ccccc2)N1c1ccccc1 (stereo not drawn),-13.2
6,Cc1ccc(C(=O)N/N=C\c2cccc(OC(=O)c3cccc(F)c3)c2)cn1,11.8
7,NC(=O)CC(NC(=O)c1ccc(Cl)cc1)C(=O)NCCc1ccc(S(N)(=O)=O)cc1 (stereo not drawn),18.5
8,[N-]=[N+]=NC(c1ccccc1)c1nc2ccccc2[nH]c1=O (stereo not drawn),-7.74
9,CCOC(=O)N1CCN(S(=O)(=O)c2cc(Br)cc3c2N(C(C)=O)C(C)C3)CC1 (stereo not drawn),-10.8
10,Cc1ccc2c(CC(=O)OC3CCOC3=O)coc2c1 (stereo not drawn),3.85
11,CC(C)(C)CC(=O)NCCCN1CCOCC1,5.49
12,Cc1cc(C)n(-c2cc(Cl)cc(Cl)c2)c(=O)c1C#N,9.93
13,O=C(CN1CCSC1=O)N1CCN(S(=O)(=O)c2ccccc2)CC1,-6.49
14,CC(C)(C)NC(=O)Cn1cnc2cc([N+](=O)[O-])ccc2c1=O,-1.13
15,COc1ccc(C(=O)Nc2cccc(-c3ccc(N4CCOCC4)nn3)c2)cc1OC,4.55
16,COC(=O)Cn1ncn2cccc2c1=O,9.57
17,O=C(NC1CCCCC1)N1CCC(c2nc(-c3ccc(S(=O)(=O)N4CCCC4)cc3)no2)CC1,-0.594
18,O=C(NC1CCCCC1)C(c1ccc(F)cc1)N(Cc1ccco1)C(=O)CN1C(=O)c2ccccc2S1(=O)=O (stereo not drawn),-11.9
19,CN(c1ccccc1C(=O)O)S(=O)(=O)c1ccc2[nH]c(=O)[nH]c2c1,20.2
20,CC1CN(C(=S)Nc2ccc(F)cc2F)CC(C)O1 (stereo not drawn),-0.0905
21,COc1cccc(CN(CC2CCCO2)S(=O)(=O)c2ccc(S(=O)(=O)N(C)C)cc2)c1 (stereo not drawn),3.64
22,O=C(N/N=C\c1cn(-c2ccccc2)nc1-c1ccccc1)c1ccc2c(c1)OCO2,11.3

row,Compound,"hERG current change (%, negative = inhibition) at 10uM [%]"
1,Cc1ccc(S(=O)(=O)Nc2c(C)n(C)n(-c3ccccc3)c2=O)c(C)c1,9.47
2,Cc1ccc(S(=O)(=O)NCCC(=O)N2CC(C)OC(C)C2)cc1C (stereo not drawn),7.48
3,O=C(NCc1ccccn1)C1CC(c2ccccc2O)=NO1 (stereo not drawn),9.59
4,CCOc1ccc(C(=O)NCC(=O)OCc2csc(-c3ccccc3)n2)cc1,14.6
5,COn1c(-c2ccccc2)nc2c1CCc1c-2no[n+]1[O-],10.3
6,COc1cc2nc(NC(=O)c3ccc(F)cc3Cl)sc(=O)c2cc1OC,16.5
7,O=C(NC1CCCCCC1)C1c2ccccc2C(=O)N1Cc1cccnc1 (stereo not drawn),-3.16
8,CC(Sc1ccc(Cl)cc1)C(=O)NNC(=O)c1ccccc1O (stereo not drawn),10.7
9,CCOc1ccc(OCCN(C)Cc2ccccc2)cc1.O=C(O)C(=O)O,-45.8
10,C#CC(CC)(CC)NC(=S)Nc1cccc(C(C)=O)c1,-14.4
11,Cn1c(Cn2c(=O)sc3ccccc32)nnc1SCC(=O)N1CCOCC1,-3.37
12,CCOC(=O)c1c(C)n(-c2ccccc2)c2ccc(O)cc12,13.8
13,Cc1c(OC(C)C(=O)NCc2ccncc2)ccc2c3c(c(=O)oc12)CCC3 (stereo not drawn),1.38
14,N#Cc1nc(Cc2ccccc2)oc1N1CCCC1,-11.1
15,COc1ccc(C2SCC(C(=O)O)N2C(C)=O)cc1OC (stereo not drawn),-5.53
16,CCNC(=S)N1CCc2cc(OC)c(OC)cc2C1COc1ccc(F)cc1 (stereo not drawn),-16.1
17,O=C(NCc1ccco1)/C(=C/c1ccc([N+](=O)[O-])cc1)NC(=O)c1ccco1,-69.5
18,Cc1nc(CN(C)C(=O)CC2C(=O)NCCN2Cc2ccc(-c3ccccc3)cc2)cs1 (stereo not drawn),-11.8
19,Cc1ccc(-n2nc(C)c(C3(O)C(=O)N(C(C)C)c4ccccc43)c2N)cc1 (stereo not drawn),-4.89
20,CC1(Br)C2CCCC1C2S(=O)(=O)c1ccccc1 (stereo not drawn),5.94
21,COc1cc(NC(=O)CSCc2cnn(-c3ccccc3)c2-n2cccc2)cc(OC)c1,2.87
